# Measured values taken from the supplement of paper PMC4967469.
# pIC50: −log10 of the molar value. IC50 is the fitted dose that halves viability relative to control wells, and lower means more sensitive; a fit beyond the top or the lowest dose is shown as a bound at that dose. AUC, from the same fit, is the share of area under the viability curve across the 256-fold dose range: 1 means no effect, lower means more sensitive. An inferred top dose was calculated from the reported fits. For some assays here: Drugs with an entry number were screened twice under separate entries, and the two screens often disagree.
# Tests used:
# Experiment in all cases: Viability of human cancer cell lines after 72 h of drug (GDSC screen)
# Wee1 inhibitor 681640 = compound: O=C1NC(=O)c2c1c(-c1ccccc1Cl)cc1[nH]c3ccc(O)cc3c21 [Wee1 inhibitor 681640]; conditions: top dose 2 µM; top dose inferred
# Procedure: (§1)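 Human cancer cell lines in 384-well plates, medium with 10% serum, drug for 72 h over a 256-fold dose range (nine 2-fold or five 4-fold steps up to the top dose). Adherent lines were fixed and stained with the nucleic acid dye Syto60, suspension lines read with resazurin; signal relative to control wells, capped at 0 and 100%. One two-parameter sigmoid per drug and line, fitted in a mixed model over all curves with the slope shared within a line.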
# SB-525334 = compound: Cc1cccc(-c2[nH]c(C(C)(C)C)nc2-c2ccc3nccnc3c2)n1 [SB-525334]; conditions: top dose 20 µM; top dose inferred
# Procedure: as §1
# BIRB 0796 = compound: Cc1ccc(-n2nc(C(C)(C)C)cc2NC(=O)Nc2ccc(OCCN3CCOCC3)c3ccccc23)cc1 [BIRB 0796]; conditions: top dose 10 µM; top dose inferred
# Procedure: as §1
# HG-5-113-01 = compound: CNC(=O)c1ccc(Nc2cc(Nc3ccccc3S(=O)(=O)C(C)C)c3cc[nH]c3n2)nc1 [HG-5-113-01]; conditions: top dose 10 µM; top dose inferred
# Procedure: as §1
# BMS-536924 = compound: Cc1cc(N2CCOCC2)cc2[nH]c(-c3c(NC[C@@H](O)c4cccc(Cl)c4)cc[nH]c3=O)nc12 [BMS-536924]
# Procedure: as §1
# XMD8-85 = compound: COc1cc(N2CCN(C)CC2)ccc1Nc1ncc2c(n1)N(C)c1ccccc1C(=O)N2C [XMD8-85]; conditions: top dose 8 µM; top dose inferred
# Procedure: as §1
# Shikonin = compound: CC(C)=CC[C@@H](O)C1=CC(=O)c2c(O)ccc(O)c2C1=O [Shikonin]; conditions: top dose 16 µM; top dose inferred
# Procedure: as §1
# Olaparib = compound: O=C(c1cc(Cc2n[nH]c(=O)c3ccccc23)ccc1F)N1CCN(C(=O)C2CC2)CC1 [Olaparib]
# Procedure: as §1
# A-770041 = compound: COc1cc(-c2nn([C@H]3CC[C@H](N4CCN(C(C)=O)CC4)CC3)c3ncnc(N)c23)ccc1NC(=O)c1cc2ccccc2n1C [A-770041]; conditions: top dose 5.12 µM; top dose inferred
# Procedure: as §1
# VX-702 = compound: NC(=O)c1ccc(N(C(N)=O)c2c(F)cccc2F)nc1-c1ccc(F)cc1F [VX-702]; conditions: top dose 2 µM; top dose inferred
# Procedure: as §1
# CGP-082996 (CINK4) = compound: CCNc1cc(NC2CCC(O)CC2)nc(Nc2ccc3c(ccn3Cc3ccccc3)c2)n1 [CGP-082996 (CINK4)]; conditions: top dose 5.12 µM; top dose inferred
# Procedure: as §1
# [1] = top dose 4 µM, screen: GDSC drug entry 1091, top dose inferred
# [2] = top dose 5.12 µM, screen: GDSC drug entry 62
# [3] = top dose 5 µM, screen: GDSC drug entry 1017, top dose inferred
# [4] = top dose 10 µM, screen: GDSC drug entry 1495
Cell Line,AUC (Wee1 inhibitor 681640),pIC50 (Wee1 inhibitor 681640),AUC (SB-525334),pIC50 (SB-525334),AUC (BIRB 0796),pIC50 (BIRB 0796),AUC (HG-5-113-01),pIC50 (HG-5-113-01),AUC (BMS-536924; [1]),pIC50 (BMS-536924; [1]),AUC (BMS-536924; [2]),pIC50 (BMS-536924; [2]),AUC (XMD8-85),pIC50 (XMD8-85),AUC (Shikonin),pIC50 (Shikonin),AUC (Olaparib; [3]),pIC50 (Olaparib; [3]),AUC (Olaparib; [4]),pIC50 (Olaparib; [4]),AUC (A-770041),pIC50 (A-770041),AUC (VX-702),pIC50 (VX-702),AUC (CGP-082996 (CINK4)),pIC50 (CGP-082996 (CINK4))
"NCI-H1876 (small cell lung carcinoma, adherent)",0.964,< 5.70,0.937,< 4.70,0.982,< 5.00,0.859,5.07,0.871,5.42,0.9,< 5.29,0.937,< 5.10,0.758,5.25,0.854,5.40,0.832,5.19,0.973,< 5.29,0.984,< 5.70,0.987,< 5.29
"NCI-H2141 (small cell lung carcinoma, suspension)",0.981,< 5.70,0.966,< 4.70,0.979,< 5.00,0.917,< 5.00,0.99,< 5.40,0.869,5.35,0.979,< 5.10,0.589,5.76,0.99,< 5.30,0.99,< 5.00,0.937,< 5.29,0.99,< 5.70,0.969,< 5.29
"NCI-SNU-5 (stomach, suspension)",0.986,< 5.70,0.989,< 4.70,0.985,< 5.00,0.985,< 5.00,0.988,< 5.40,0.983,< 5.29,0.973,< 5.10,0.644,5.60,0.985,< 5.30,0.976,< 5.00,0.986,< 5.29,0.975,< 5.70,0.987,< 5.29
"NCI-SNU-16 (stomach, suspension)",0.966,< 5.70,0.984,< 4.70,0.991,< 5.00,0.624,5.88,0.747,5.94,0.66,6.08,0.919,< 5.10,0.991,< 4.80,0.973,< 5.30,0.989,< 5.00,0.96,< 5.29,0.987,< 5.70,0.915,< 5.29
"NH-12 (neuroblastoma, adherent)",0.883,< 5.70,0.909,< 4.70,0.982,< 5.00,0.7,5.61,0.714,5.96,0.954,< 5.29,0.871,< 5.10,0.477,6.07,0.951,< 5.30,–,–,0.984,< 5.29,0.98,< 5.70,0.985,< 5.29
